# Data from PubChem BioAssay AID1745853 (National Center for Advancing Translational Sciences (NCATS), 2022).
# “And” between values parts separate entries of the source, which are not always exact repeats. Equal values may be shown once. The list shows a part of the results. These are further read-outs of the screen, such as a control signal, another cell line or another target. No call is given for them. Peptide text beside a SMILES is read from it. * marks the point of attachment. AMC = Cc1cc(=O)oc2cc(N*)ccc12; Cbz = O=C(OCc1ccccc1)*
# Legend:
# Assay in all cases: Primary Screen for Target Class Profiling of Small Molecule Inhibitors of Methyltransferases
# [1] = biological target: Glycine N-methyltransferase (Homo sapiens) (UniProt Q14749); conditions: purified enzyme, MTase-Glo SAH luminescence; measured here: GNMT inhibition; at 40 µM; stronger effect = lower value
# Summary of the method: (§1)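 Each enzyme was reacted with SAM and its substrate, with compounds tested once at 40 uM; SAH formed was read by MTase-Glo luminescence.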
# [2] = biological target: Guanidinoacetate N-methyltransferase (Homo sapiens) (UniProt Q14353); conditions: purified enzyme, MTase-Glo SAH luminescence; measured here: GAMT inhibition; at 40 µM; stronger effect = lower value
# Summary of the method: as §1
# [3] = biological target: Histamine N-methyltransferase (Homo sapiens) (UniProt P50135); conditions: purified enzyme, MTase-Glo SAH luminescence; measured here: HNMT inhibition; at 40 µM; stronger effect = lower value
# Summary of the method: as §1
# [4] = biological target: Nicotinamide N-methyltransferase (Homo sapiens) (UniProt P40261); conditions: purified enzyme, MTase-Glo SAH luminescence; measured here: NNMT inhibition; at 40 µM; stronger effect = lower value
# Summary of the method: as §1
# [5] = biological target: Phenylethanolamine N-methyltransferase (Homo sapiens) (UniProt P11086); conditions: purified enzyme, MTase-Glo SAH luminescence; measured here: PNMT inhibition; at 40 µM; stronger effect = lower value
# Summary of the method: as §1
# On the % scale 0 is the no-effect control and ±100 the full control effect.
SMILES,"activity change, negative = inhibition [1]","activity change, negative = inhibition [2]","activity change, negative = inhibition [3]","activity change, negative = inhibition [4]","activity change, negative = inhibition [5]"
Fc1cccc(-c2nnn3c2nc(N2CCCC2)c2cc(Cl)ccc23)c1,4.48%,0%,9.89%,13.7%,3.3%
Cc1ccc(C)c(Cn2nc3n(C)c(=O)c4ccc(C(=O)NC5CCCC5)cc4n3c2=O)c1,-4.61%,0%,10.5%,-5.42%,-1.81%
CC1CCCCC1NC(=O)C1(C)Cn2c(ccc2-c2ccco2)C(=O)N1Cc1ccc(F)cc1 (stereo not given),0.587%,0%,0.691%,-0.382%,-1.83%
COc1ccccc1CNC(=O)C1(C)Cn2nc(-c3ccccc3)cc2C(=O)N1C1CCCCCC1 (stereo not given),-1.14%,5.53%,-0.36%,-3.77%,-1.53%
CCOC(=O)C1CCCN(c2nc3c(S(=O)(=O)c4ccccc4)nnn3c3ccccc23)C1 (stereo not given),-21.7%,1.26%,-2.63%,-3.07%,-4.84%
Cc1cccc(Cn2nc3n(CC(C)C)c(=O)c4ccc(C(=O)NC(C)C)cc4n3c2=O)c1,3.87%,0%,5.53%,2.56%,5.8%
COc1ccc2cc3n(c2c1)CC(C)(C(=O)NC1CCCC1)N(Cc1ccccc1Cl)C3=O (stereo not given),-1.66%,5.33%,-1.46%,-5.42%,-6.91%
CS(=O)(=O)N1CCC(OC2CCN(C(=O)c3cccnc3)CC2)CC1,-0.261%,-1.02%,1.56%,0.376%,2.97%
CC(C)COc1cc(=O)n2c(c1C(=O)NC1CCCCC1)CCCCC2,0.033%,-2.6%,1.48%,0.857%,-1.28%
CC1CCC(NC(=O)C2(C)Cn3c(nc4ccccc43)C(=O)N2CCCc2ccccc2)CC1 (stereo not given),-4.47%,0%,8.15%,-8.61%,-6.46%
Cc1cc(=O)oc2cc(NC(=O)[C@H](CCC(=O)O)NC(=O)[C@H](CC(C)C)NC(=O)[C@H](CC(C)C)NC(=O)OCc3ccccc3)ccc12 (Cbz-Leu-Leu-Glu-{AMC}),-5.15%,17%,7.53%,-78.3%,2.56%
COc1cc2nc(N3CCN(C(=O)COc4c(OC)cccc4C(C)C)CC3)nc(N)c2cc1OC,-9.76%,13.3%,4.23%,-20.4%,5.09%
CCC1(N2CCN(C(=O)c3ccccc3C(F)(F)F)CC2)CCN(C(=O)C(C)C)C1 (stereo not given),-7.04%,-4%,-3.78%,-5.75%,0.403%
C=Cc1ccc(Cn2nc3n(C(C)C)c(=O)c4ccc(C(=O)NC5CCCC5)cc4n3c2=O)cc1,2.64%,0%,10.2%,-2.07%,4.04%
NC(N)=NCCCCN=C(N)N,-8.28%,1.84%,-1.87%,-9.09%,-1.88%
Cn1c(=O)c2ccc(C(=O)NC3CCCCC3)cc2n2c(=O)n(CC(=O)NCc3ccccc3)nc12,-3.02%,-0.764%,-3.97%,-4.55%,-6.28%
C[S+](CC[C@H](N)C(=O)[O-])C[C@H]1O[C@@H](n2cnc3c(N)ncnc32)[C@H](O)[C@@H]1O (stereo not given in full),0.499%,2.78%,5.25%,0.787%,1.71%
COC(=O)[C@@H](NC(=O)[C@H](CC(C)C)NC(=O)N(Cc1ccccc1)C[C@@H](O)[C@H](Cc1ccccc1)NC(=O)OC(C)(C)C)C(C)C,-3.9%,-11%,9.71%,-16.3%,-1.81%
CC/C=C/C=C/C1(C)OC(CC(CO)OC)=CC1=O (stereo not given),-2.93%,2.52%,4.92%,-7.17%,1.64%

SMILES,"activity change, negative = inhibition [1]","activity change, negative = inhibition [2]","activity change, negative = inhibition [3]","activity change, negative = inhibition [4]","activity change, negative = inhibition [5]"
COc1ccc(C(=O)N2CCC3(CC2)CN(c2ccccc2)C3=O)cc1OC,-8.53%,-15.1%,-5.34%,-16.1%,-8.98%
O=C(C1CCN(c2cnn(Cc3ccccc3)c(=O)c2)C1)N1CCCC1 (stereo not given),-3.49%,-6.89%,-3.56%,-9.65%,-2.72%
O=C(Nc1cccc(Br)c1)c1cccc(S(=O)(=O)N2CCCCCC2)c1,5.77%,-7.02%,6.41%,-25.9%,-4.23%
CCCCN1C(=O)c2cc(C(=O)Nc3c(C)cccc3C)nn2CC1(C)C(=O)NC1CCCC1 (stereo not given),3.16%,0%,-5.87%,6.48%,3.15%
CCC(CC)C(=O)NCCc1noc(C)n1,-0.254%,0.388%,2.68%,3.31%,0.845%
O=C(O)Cn1nnc(-c2cc(N3CCC(Oc4cc(F)ccc4Br)CC3)no2)n1,-7.37%,-12.7%,-2.77%,-27.1%,-13.5%
C[C@@H]1CC[C@]2(C(=O)O)CC[C@]3(C)C(=CCC4[C@@]5(C)CC[C@H](O)C(C)(C)C5C(O)C[C@]43C)[C@@H]2[C@]1(C)O (stereo not given in full),3.67%,6.62%,9.67%,-7.7%,8.38%
CCN1CCN(CC(O)COc2cccc(CNCc3cnn(CC)c3)c2)CC1 (stereo not given),-7.27%,-9.7%,-9.93%,-18.2%,-11.5%
COc1ccc(CC(=O)N[C@H]2[C@H](O)[C@H](O)C[C@@H]2c2ccccc2)cc1,-4.93%,-3.81%,-3.8%,-8.09%,0.529%
COc1ccc(N2C(=O)c3ccc(-c4ccco4)n3CC2(C)C(=O)NCc2ccccc2)cc1 (stereo not given),-27.6%,-2.37%,-4.21%,-10.8%,-7.31%
CC(C)CCn1c(=O)c2ccc(C(=O)NC3CCCCC3)cc2n2c(=O)n(Cc3ccc(F)cc3)nc12,4.55%,0%,5.82%,0.387%,2.93%
CCOC(=O)c1cc2n(n1)CC(C)(C(=O)NCCC(C)C)N(c1cc(OC)cc(OC)c1)C2=O (stereo not given),-1.65%,0%,2.98%,4.6%,1.83%
C[S+](=O)([O-])c1cccc(NC(=O)Cc2c[nH]c3ncc(-c4cccnc4)cc23)c1,-27.7%,-14.8%,-21%,-28.3%,-22.2%
COc1ccc(CCC(=O)N2CCC(Cc3nc(-c4ccc(OC)cc4)no3)CC2)cc1,-5.17%,2.04%,0.746%,-6.04%,-3.4%
CCCS(=O)(=O)N1CCC(c2noc(-c3ccccc3)n2)C1 (stereo not given),-1.63%,0.049%,-1.45%,-0.455%,-12.5%
CCCc1nn(C)c2c(=O)[nH]c(-c3cc(S(=O)(=O)N4CCN(C)CC4)ccc3OCC)nc12,1.83% and 0.067%,14.9% and -1.24%,7.49% and 2.62%,-2.66% and -22.8%,0.338% and 2.37%
CCc1cc2c(cc3n2CC(C)(C(=O)NC2CCCCCC2)N(c2ccc(C)cc2C)C3=O)s1 (stereo not given),3.01%,0.735%,4.11%,6.52%,-0.664%
CCc1cc2c(cc3n2CC(C)(C(=O)NC2CCC(C)CC2)N(Cc2ccccc2OC)C3=O)s1 (stereo not given),0.857%,0%,7.23%,0.095%,1.93%
CCCCN(CC)CCN1C(=O)c2ccc(-c3ccco3)n2CC1(C)C(=O)NC1CCC(C)CC1 (stereo not given),-2.02%,2.5%,2.73%,-18.7%,0.025%

SMILES,"activity change, negative = inhibition [1]","activity change, negative = inhibition [2]","activity change, negative = inhibition [3]","activity change, negative = inhibition [4]","activity change, negative = inhibition [5]"
COc1ccc(CN2CCC3(C2)C(=NC2CCCCC2)NC(=O)N3c2cc(F)cc(F)c2)cc1 (stereo not given),-2.07%,-5%,-3.23%,-7.66%,-2.34%
COc1cccc(CNC(=O)Cn2c(=O)oc3cc(S(=O)(=O)N4CCC(C)CC4)ccc32)c1,-12.1%,0.794%,-8.05%,-6.59%,-10.9%
COc1ccc(CNc2nc3c(S(=O)(=O)c4cc(C)ccc4C)nnn3c3ccccc23)cc1,-7.47%,-3.2%,-5.29%,-14.2%,-5.83%
CN(C[C@@H]1COCCO1)S(=O)(=O)Nc1ccc2ccc3ncc(-c4cnn(C)c4)cc3c(=O)c2c1,-13.5%,1.47% and -12.5%,3.7%,-13.5% and -21.8%,-11.5% and -27.9%
CCCN1C(=O)c2c(C(=O)NCc3cccc(F)c3)ncn2CC1(C)C(=O)NCc1ccc(OC)cc1 (stereo not given),-0.506%,0%,-3.35%,1.35%,3.55%
CCN1CCN(Cc2ccc(NC(=O)c3ccc(C)c(NC(=O)c4cncc(-c5cccs5)c4)c3)cc2C(F)(F)F)CC1,4.01%,3.86%,5.03%,-16.7%,-1.56%
CCOC(=O)c1ccc(N2C(=O)CSc3c(c4ccccc4n3C)C2C(=O)NCCC(C)C)cc1 (stereo not given),9.17%,0%,3.73%,-0.591%,3.41%
COc1cccc(NS(=O)(=O)c2cc3c(cc2C)n(C)c(=O)n3C)c1,-0.883%,0%,-4.85%,-7.13%,-1.2%
COc1ccc(OC)c(CNC(=O)Cn2ccc3cc(S(=O)(=O)N4CCC(C)CC4)ccc32)c1,8.67%,2.76%,1.71%,4.4%,4.89%
Cc1cc2c(cc3n2CC(C)(C(=O)NC2CCCCCC2)N(c2cccc(Cl)c2C)C3=O)o1 (stereo not given),-3.63%,2.86%,-1.96%,2.16%,-1.3%
CC(C)CCn1c(=O)c2ccccc2n2c(SCc3ccc(F)cc3)nnc12,2.03%,4.76%,4.02%,-7.64%,4.65%
Cc1ccc(NC(=O)N2CCCN(CCn3nc4n(c3=O)CCCC4)CC2)cc1F,-7.95%,-10.4%,-5.11%,0.241%,-7.32%
Clc1ccc(C2Nc3ccc4ccccc4c3C3C=CCC32)cc1 (stereo not given),3.32%,-0.394%,0.272%,-10.7%,-6.57%
COc1cc2c(=O)[nH]c3c(C(=O)NCc4ccc5c(c4)OCO5)sc(=S)n3c2cc1OC,1.49%,0%,1.42%,3.45%,0.507%
CC1(C)CC[C@]2(C(=O)O)CC[C@]3(C)C(=CCC4[C@@]5(C)C[C@@H](O)[C@H](O)[C@](C)(CO)C5CC[C@]43C)[C@@H]2[C@@H]1O (stereo not given in full),-4.46%,-6.53%,-0.04%,-16.6%,-13.9%
COc1ccc(OC)c(S(=O)(=O)Nc2nc3c(s2)C[C@]2(C)CC[C@@H]4[C@H](OC(=O)[C@H]4C)[C@H]2[C@@H]3C)c1,-10.6%,-2.05%,-2.12%,-5.49%,-1.98%
Cc1noc(C)c1-c1cn(C)c(=O)n2cc(COc3ccc(Cl)cc3)nc12,-4.05%,-4.78%,-2.81%,-9.18%,1.77%
CCOC(=O)c1cc2n(n1)CC(C)(C(=O)NCc1ccccc1)N(c1cc(C)cc(C)c1)C2=O (stereo not given),0.991%,0%,1.62%,0.102%,-1.8%
CC(C)CCn1c(=O)c2ccc(C(=O)NC(C)C)cc2n2c(=O)n(CC(=O)c3ccccc3)nc12,1.63%,1.26%,-1.18%,-5.94%,-1.92%
